Experimental data from the supplement of paper PMC10126150.
Sequences with one replicate were seen in a single cluster, so their values are uncertain.

system: ATP; assay: switch fluorescence ratio, 500 uM ATP over buffer (Cy3 cluster intensity, sum of 5 cycles each) (fold (ratio)); higher = stronger signal-on switching upon ATP binding; sequences stand for … in TCGTCGGCAGCGTCAGATGTGTATAAGAGACAGTTTTTTTTTTTTTTTTTTTTTTTTT…TC; conditions: aptamer strand: ATP DNA aptamer (quencher-CACCTGGGGGAGTATTGCGGAGGAAGG + anchor), 100 nM annealed; ATP concentration: 500 uM; one replicate
Summary of the method: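 The quencher-labelled ATP aptamer, at 100 nM, was annealed to Cy3-labelled switching-strand clusters on a modified Illumina MiSeq flow-cell. The clusters were imaged in selection buffer, then after 15 min with 500 uM ATP at 22 °C, and this buffer/ATP cycle ran five times with NaOH stripping and re-annealing between runs. Per-cluster fluorescence ratios, summed target-cycle over summed buffer-cycle Cy3 intensity, were averaged per switch-domain sequence. Clusters outside 100-1000 RFU were excluded.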
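Further: ATP exposure 15 min at 22 °C before imaging.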

Sequence	switch fluorescence ratio
TAATTATTGT	1.03
TAATTCACAC	1.04
TAATTGGGTA	0.971
TAATTGTATG	1.02
TAATTGTATT	0.993
TAATTGTTCT	1.01
TAATTTGACG	0.907
TACAACGCAC	2.24
TACAACGCCG	1.18
TACAACTAAT	1.04
TACAAGGGG	1.04
TACAATAGCT	1.06
TACACAGGT	1.25
TACACATGTA	1.02
TACACCAAAA	1.1
TACACCTGTC	0.915
TACACGAACA	1.41
TACACGAACT	1.45
TACACTGCCA	1.16
TACAGAGTTC	1.05
TACAGATAAT	0.99
TACAGCCCG	0.947
TACAGTGGTA	0.976
TACAGTTATT	1.05
TACAGTTGGA	1.03
TACAGTTGGG	1.04

Sequence	switch fluorescence ratio
TACATCAGCT	1
TACATGGAGC	0.951
TACATGGGAT	1
TACATTACTA	1.28
TACATTCCAC	1.26
TACATTCTTG	1.01
TACCAATAAT	1.03
TACCACAAAA	1.01
TACCACCAGC	1.23
TACCACCTTA	1.1
TACCAGCATG	1.02
TACCAGCTGG	1.06
TACCAGTCGG	1.01
TACCATGTTG	1.04
TACCATTTGG	1.02
TACCCACTAG	1.43
TACCCCCGTG	1.79
TACCCGTTTT	1.05
TACCCTACTC	1.19
TACCCTAGGA	1.07
TACCCTCGCA	1.67
TACCCTGTCA	1.05
TACCGAACAG	1.2
TACCGAACCG	1.11
TACCGAATCT	1.06
TACCGACAGC	1.5

Sequence	switch fluorescence ratio
TACCGAGTAG	1.01
TACCGCATAG	6.23
TACCGCGGTA	0.995
TACCGGTTGG	0.985
TACCTATCTC	1.08
TACCTCGAGC	0.956
TACCTGATGT	1.04
TACCTTGTAC	1.11
TACCTTTGGC	1.07
TACGAAAAAG	1.09
TACGAAAGCT	1.23
TACGAACGGA	1.44
TACGAATACA	1.16
TACGACTGG	0.963
TACGAGCGGG	1.02
TACGAGGGCG	1.01
TACGAGGGGC	0.988
TACGAGGTG	1.04
TACGAGTTT	0.976
TACGATTTAC	1.15
TACGCAGATC	1.18
TACGCCGCGG	1.17
TACGCTACCG	1.27
TACGCTGTTT	1.07
TACGCTTCAA	1.01
TACGGACAAC	1.33

Sequence	switch fluorescence ratio
TACGGCATCG	1.09
TACGGCGTTG	1
TACGGGATT	1.04
TACGGTACTG	1.33
TACGGTGAG	1.02
TACGGTGTTG	1.01
TACGGTTCG	0.982
TACGTAAGAA	1.12
TACGTACCCG	1.33
TACGTCAAC	1.32
TACGTCGGGC	0.955
TACGTCTAGC	1.04
TACGTGTTCA	1.04
TACTAAGTA	1.05
TACTATGATG	0.992
TACTATGTAA	1.05
TACTATTGAC	1.03
TACTCATGCC	0.958
TACTCTCTCT	1.04
TACTCTGGGT	0.994
TACTGAAATT	1.03
TACTGACTCG	1.07
TACTGATGCA	0.95
TACTGATTGA	1.02
TACTGCAGTC	0.973
TACTGCCCCC	1.23

Sequence	switch fluorescence ratio
TACTGGAACG	1.1
TACTGGGATC	1
TACTGGTGAA	1.01
TACTGTAACG	1.18
TACTGTCTGT	0.984
TACTGTTCAT	0.983
TACTTAAATC	1.03
TACTTAGAAT	1.02
TACTTATAGA	1.04
TACTTATTGA	0.986
TACTTGGTGG	1.04
TACTTGTCT	1.03
TACTTTTATG	1.02
TAGAAACGGT	0.99
TAGAAATAGG	1.01
TAGAACGGGC	1.01
TAGAAGATCG	0.959
TAGAATCTCA	0.968
TAGAATTTCC	1.01
TAGACCAGCT	1.04
TAGACCTGGT	1.02
TAGACGTACT	1.63
TAGACTAAAG	0.991
TAGACTAGTT	0.966
TAGACTTTC	1.16
TAGAGAACGA	1.01

Sequence	switch fluorescence ratio
TAGAGACTAT	0.969
TAGAGACTGC	0.892
TAGAGCGAGA	0.992
TAGAGGGGCC	1.02
TAGAGGGTGG	0.972
TAGAGTATCA	1.01
TAGAGTATGA	1
TAGAGTATTC	1.04
TAGAGTCCGT	1
TAGAGTGCGT	1.01
TAGAGTTAGA	0.955
TAGATACGTC	0.974
TAGATACTGC	1.05
TAGATAGACA	0.967
TAGATAGTTA	1.08
TAGATGAAG	0.992
TAGATGCATT	0.992
TAGATGGCAA	1.03
TAGATGGGAA	1.01
TAGATGTGGA	1
TAGATGTGTG	0.994
TAGATTAGAG	1.01
TAGCAACAGT	1.01
TAGCAAGGCC	1.15
TAGCAAGTTA	1.04
TAGCACGCAT	1.25

Sequence	switch fluorescence ratio
TAGCACGGAG	0.999
TAGCATGTTT	0.988
TAGCCAGATC	1.01
TAGCCAGCAC	1.11
TAGCCATCCC	1.06
TAGCCATTAT	1.02
TAGCCGCCCC	1.53
TAGCCTAACT	0.986
TAGCGTGTCG	0.969
TAGCTAGTG	0.983
TAGCTATATC	1.74
TAGCTCAACG	0.989
TAGCTGAACC	0.95
TAGCTGAATG	0.996
TAGCTGCAGA	0.993
TAGCTTCGAT	0.979
TAGCTTTGGA	1.04
TAGGAAAAGA	1.01
TAGGAACGAT	1.02
TAGGAAGGGC	0.992
TAGGACAT	1.01
TAGGACATTG	1.09
TAGGACTTGA	0.994
TAGGAGAAAT	1
TAGGAGATAA	1.04
TAGGAGTC	1.03

Sequence	switch fluorescence ratio
TAGGATCATT	0.952
TAGGATCCCG	1.02
TAGGCAAGGC	1.34
TAGGCCAGAC	1.1
TAGGCCAGGG	0.98
TAGGCCTTCT	1.6
TAGGCTGACG	0.924
TAGGGCAAG	1
TAGGGCAGGC	0.599
TAGGGCTCCA	1.02
TAGGGGCGTT	0.981
TAGGGGGCGA	0.991
TAGGGTAGA	1.04
TAGGGTAGTC	1.02
TAGGGTCCAT	0.993
TAGGGTGAT	1.08
TAGGGTGCAG	0.972
TAGGTAGAGG	0.985
TAGGTAGCGA	1.03
